T1: human IL-2 receptor (IL-2Rα, IL-2Rβ, IL-2Rγ) (human, UniProt P01589 22-272; P14784 27-551; P31785 23-369)
T1 sequence (looked up) 1: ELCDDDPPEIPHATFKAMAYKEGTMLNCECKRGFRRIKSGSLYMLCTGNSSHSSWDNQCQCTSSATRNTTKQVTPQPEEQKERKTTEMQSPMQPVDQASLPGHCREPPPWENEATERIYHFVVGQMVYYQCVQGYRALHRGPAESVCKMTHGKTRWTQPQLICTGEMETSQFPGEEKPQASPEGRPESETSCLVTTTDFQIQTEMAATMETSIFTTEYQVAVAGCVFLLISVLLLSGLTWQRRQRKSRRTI
T1 sequence (looked up) 2: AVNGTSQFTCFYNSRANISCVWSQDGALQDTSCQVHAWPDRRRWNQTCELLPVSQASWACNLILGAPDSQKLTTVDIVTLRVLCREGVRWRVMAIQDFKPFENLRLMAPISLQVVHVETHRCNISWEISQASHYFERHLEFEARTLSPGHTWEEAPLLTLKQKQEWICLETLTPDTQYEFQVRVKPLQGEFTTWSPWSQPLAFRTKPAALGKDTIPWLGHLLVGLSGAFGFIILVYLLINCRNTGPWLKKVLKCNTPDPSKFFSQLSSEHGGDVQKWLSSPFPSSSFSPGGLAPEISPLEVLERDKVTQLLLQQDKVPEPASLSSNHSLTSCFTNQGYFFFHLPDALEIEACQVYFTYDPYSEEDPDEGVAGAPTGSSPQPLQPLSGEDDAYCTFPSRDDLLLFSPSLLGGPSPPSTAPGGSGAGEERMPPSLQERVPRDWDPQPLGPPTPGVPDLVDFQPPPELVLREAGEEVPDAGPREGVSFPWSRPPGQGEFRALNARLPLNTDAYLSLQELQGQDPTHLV
T1 sequence (looked up) 3: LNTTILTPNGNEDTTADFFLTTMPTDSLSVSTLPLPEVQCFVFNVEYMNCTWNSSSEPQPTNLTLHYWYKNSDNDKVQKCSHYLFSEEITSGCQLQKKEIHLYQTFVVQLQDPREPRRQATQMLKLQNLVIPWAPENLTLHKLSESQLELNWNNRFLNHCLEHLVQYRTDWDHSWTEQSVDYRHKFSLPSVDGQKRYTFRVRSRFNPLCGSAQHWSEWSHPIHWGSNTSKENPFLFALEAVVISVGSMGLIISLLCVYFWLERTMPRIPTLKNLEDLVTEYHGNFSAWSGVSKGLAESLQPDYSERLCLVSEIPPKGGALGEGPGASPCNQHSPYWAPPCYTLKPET

B1: CTLA-4-Fc/IL-12(F60A) immunomodulatory molecule (IL-12 at C-terminus) (Fc fusion)
chain 1: [omitted - about 120 residues][omitted - about 250 residues]
chain 2: [omitted - about 120 residues]SGDKTHTCPPCPAPEDEGGPSVFLFPPKPKDTLMISRTPEVTCVVVDVSHEDPEVKFNWYVDGVEVHNAKTKPREEQYNSTYRVVSVLTVLHQDWLNGKEYKCKVSNKALPAPIEKTISKAKGQPREPQVYVYPPSREEMTKNQVSLTCLVKGFYPSDIAVEWESNGQPENNYKTTPPVLDEDGSFALVSKLTVDKSRWQQGNVFSCSVMHEALHNHYTQKSLSLSPGKGGGGSGGGGSGGGGSIWELKKDVYVVELDWYPDAPGEMVVLTCDTPEEDGITWTLDQSSEVLGSGKTLTIQVKEAGDAGQYTCHKGGEVLSHSLLLLHKKEDGIWSTDILKDQKEPKNKTFLRCEAKNYSGRFTCWWLTTISTDLTFSVKSSRGSSDPQGVTCGAATLSAERVRGDNKEYEYSVECQEDSACPAAEESLPIEVMVDAVHKLKYENYTSSFFIRDIIKPDPPKNLQLKPLKNSRQVEVSWEYPDTWSTPHSYFSLTFCVQVQGKSKREKKDRVFTDKTSATVICRKNASISVRAQDRYYSSSWSEWASVPCSGGGGSGGGGSGGGGSGGGGSGRNLPVATPDPGMFPCLHHSQNLLRAVSNMLQKARQTLEFYPCTSEEIDHEDITKDKTSTVEACLPLELTKNESCLNSRETSFITNGSCLASRKTSFMMALCLSSIYEDLKMYQVEFKTMNAKLLMDPKRQIFLDQNMLAVIDELMQALNFNSETVPQKSSLEEPDFYKTKIKLCILLHAFRIRAVTIDRVMSYLNAS
B2: IL-12(E59A/F60A)/CTLA-4-Fc immunomodulatory molecule (IL-12 at hinge) (Fc fusion)
chain 1: [omitted - about 120 residues][omitted - about 250 residues]
chain 2: [omitted - about 120 residues]SGIWELKKDVYVVELDWYPDAPGEMVVLTCDTPEEDGITWTLDQSSEVLGSGKTLTIQVKAAGDAGQYTCHKGGEVLSHSLLLLHKKEDGIWSTDILKDQKEPKNKTFLRCEAKNYSGRFTCWWLTTISTDLTFSVKSSRGSSDPQGVTCGAATLSAERVRGDNKEYEYSVECQEDSACPAAEESLPIEVMVDAVHKLKYENYTSSFFIRDIIKPDPPKNLQLKPLKNSRQVEVSWEYPDTWSTPHSYFSLTFCVQVQGKSKREKKDRVFTDKTSATVICRKNASISVRAQDRYYSSSWSEWASVPCSGGGGSGGGGSGGGGSGGGGSGRNLPVATPDPGMFPCLHHSQNLLRAVSNMLQKARQTLEFYPCTSEEIDHEDITKDKTSTVEACLPLELTKNESCLNSRETSFITNGSCLASRKTSFMMALCLSSIYEDLKMYQVEFKTMNAKLLMDPKRQIFLDQNMLAVIDELMQALNFNSETVPQKSSLEEPDFYKTKIKLCILLHAFRIRAVTIDRVMSYLNASDKTHTCPPCPAPEDEGGPSVFLFPPKPKDTLMISRTPEVTCVVVDVSHEDPEVKFNWYVDGVEVHNAKTKPREEQYNSTYRVVSVLTVLHQDWLNGKEYKCKVSNKALPAPIEKTISKAKGQPREPQVYVYPPSREEMTKNQVSLTCLVKGFYPSDIAVEWESNGQPENNYKTTPPVLDEDGSFALVSKLTVDKSRWQQGNVFSCSVMHEALHNHYTQKSLSLSPGK
B3: IL-12(F60A)/CTLA-4-Fc immunomodulatory molecule (IL-12 at hinge) (Fc fusion)
chain 1: [omitted - about 120 residues][omitted - about 250 residues]
chain 2: [omitted - about 120 residues]SGIWELKKDVYVVELDWYPDAPGEMVVLTCDTPEEDGITWTLDQSSEVLGSGKTLTIQVKEAGDAGQYTCHKGGEVLSHSLLLLHKKEDGIWSTDILKDQKEPKNKTFLRCEAKNYSGRFTCWWLTTISTDLTFSVKSSRGSSDPQGVTCGAATLSAERVRGDNKEYEYSVECQEDSACPAAEESLPIEVMVDAVHKLKYENYTSSFFIRDIIKPDPPKNLQLKPLKNSRQVEVSWEYPDTWSTPHSYFSLTFCVQVQGKSKREKKDRVFTDKTSATVICRKNASISVRAQDRYYSSSWSEWASVPCSGGGGSGGGGSGGGGSGGGGSGRNLPVATPDPGMFPCLHHSQNLLRAVSNMLQKARQTLEFYPCTSEEIDHEDITKDKTSTVEACLPLELTKNESCLNSRETSFITNGSCLASRKTSFMMALCLSSIYEDLKMYQVEFKTMNAKLLMDPKRQIFLDQNMLAVIDELMQALNFNSETVPQKSSLEEPDFYKTKIKLCILLHAFRIRAVTIDRVMSYLNASDKTHTCPPCPAPEDEGGPSVFLFPPKPKDTLMISRTPEVTCVVVDVSHEDPEVKFNWYVDGVEVHNAKTKPREEQYNSTYRVVSVLTVLHQDWLNGKEYKCKVSNKALPAPIEKTISKAKGQPREPQVYVYPPSREEMTKNQVSLTCLVKGFYPSDIAVEWESNGQPENNYKTTPPVLDEDGSFALVSKLTVDKSRWQQGNVFSCSVMHEALHNHYTQKSLSLSPGK
B4: parental PD-L2-Fc fusion protein (Fc fusion)
chain: LFTVTVPKELYIIEHGSNVTLECNFDTGSHVNLGAITASLQKVENDTSPHRERATLLEEQLPLGKASFHIPQVQVRDEGQYQCIIIYGVAWDYKYLTLKVKASYRKINTHILKVPETDEVELTCQATGYPLAEVSWPNVSVPANTSHSRTPEGLYQVTSVLRLKPPPGRNFSCVFWNTHVRELTLASIDLQSQMEPRTHPT[omitted - human IgG1 Fc with changes]

Experiments:
Assay in all cases: cell-based or functional assay
[1] = target: human IL-12 receptor complex (IL-12Rβ1 and IL-12Rβ2) (human, UniProt P42701 24-662; Q99665 24-862)
[2] = target: human PD-1 on cells (HEK-PD-1 reporter cells; activated PBMC) (human, UniProt Q15116 25-288)
[3] = target: T1, human IL-2 receptor (IL-2Rα, IL-2Rβ, …)

UniProt Q15116, sequence (Q15116 25-288): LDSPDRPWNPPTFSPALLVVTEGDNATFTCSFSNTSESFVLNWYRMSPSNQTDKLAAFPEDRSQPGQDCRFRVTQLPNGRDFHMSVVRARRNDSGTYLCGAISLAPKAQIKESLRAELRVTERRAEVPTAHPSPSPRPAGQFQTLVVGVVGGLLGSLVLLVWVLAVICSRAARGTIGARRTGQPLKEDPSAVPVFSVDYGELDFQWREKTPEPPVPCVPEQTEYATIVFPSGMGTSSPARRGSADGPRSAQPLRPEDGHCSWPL

Binder | Biological activity of IL-12, HEK-PD-1-IL-12 reporter assay, % of rIL-12 [1] | Percent IL-2 signal transduction (HEK-PD-1-IL-2 reporter assay) [2] | Percent IL-2 signal transduction (HEK-IL-2 reporter assay) [3]
B1 | 2.3% |  | 
B2 | 0.3% |  | 
B3 | 0.2% |  | 
B4 |  | 0% | 0%
